Experimental data as given in PubChem BioAssay AID1508642 (National Center for Advancing Translational Sciences (NCATS), 2021).
Among all 43,000 compounds or so, about 200 (0.47%) were called active. About 12% were inconclusive and are not listed. The call rests on the fitted dose curve; in most records, active means well fitted cell-killing curve with a large enough effect; inconclusive means small, poorly fitted or top-dose-only effect, or effect the other way; inactive means flat fitted curve, though single readings scatter. This is one part of the list.

experiment: Cell viability qHTS assay in S16 Pmp22-F2sN cells; conditions: S16 Pmp22-F2sN Schwann cells (luciferase reporters placed in the Pmp22 gene) viability, CellTiter-Glo, 24 h; series mostly up to 57.5 µM; activity change, negative = cytotoxicity: at the top concentration; further: nearly all actives have a fitted effect of over 65% in size
Summary of the method: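 CellTiter-Glo counter-screen, qHTS, 1536-well. Cells: S16(c9) Pmp22-F2sN, 500-1,000/well in DMEM + 10% FBS. Cpd 23 nL pin transfer, 24 h, 37C/5% CO2. Read: luminescence, CCD imager.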
On the % scale 0 is the no-effect control and ±100 the full control effect.

Row | SMILES | activity change, negative = cytotoxicity
1 | COc1ccccc1Cn1c(CNS(=O)(=O)c2c(C)cc(C)cc2C)nc2cccnc21 | inactive: -4.51%
2 | CCOCCn1ccc2c(OCC(=O)Nc3cc(C(F)(F)F)ccc3Cl)cccc2c1=O | inactive: 1.88%
3 | COc1ccc(NC(=O)CCS(=O)(=O)c2cc(Br)cc3c2N(C(C)=O)CC3)c(OC)c1 | inactive: -4.91%
4 | CCOc1ccccc1NC(=O)c1ccc2oc(=O)c(S(=O)(=O)c3ccc(F)cc3)cc2c1 | inactive: -11.9%
5 | CN(C(=O)CSc1nc2ccc(NC(=O)c3ccc(F)cc3)cc2s1)c1ccccc1 | inactive: -25.2%
6 | Cc1cccc(N2CCN(C(=O)Cn3nc(C)c4sc5ccccc5c4c3=O)CC2C)c1 (stereo not given) | inactive: 7.1%
7 | CCn1cc(C(=O)N(C)Cc2ccccc2)c(=O)c2cc(S(=O)(=O)N3CCCCC3)ccc21 | inactive: 12.6%
8 | CCc1ccc(NC(=O)CN2C(=O)C(=O)c3ccccc32)cc1 | inactive: -7.2%
9 | O=C(Nc1cccc(Cl)c1)N1Cc2ccccc2Oc2ncccc21 | inactive: 2.88%
10 | COc1ccc(S(=O)(=O)Nc2ccc(O)c(Sc3nc4ccccc4s3)c2)cc1 | inactive: -18.7%
11 | CCCC(=O)NC1CC(=O)N(c2ccc3c(c2)OCCO3)C1 (stereo not given) | inactive: -8.01%
12 | O=C(Nc1cccc(C(=O)OCc2cc(=O)n3nc(C4CC4)sc3n2)c1)c1ccc(F)cc1 | inactive: -3.26%
13 | CC(=O)c1ccc(S(=O)(=O)N2CCC(Oc3ccc(-n4cnnn4)cc3)CC2)cc1 | inactive: 13.5%
14 | COc1ccccc1C1C(C(N)=O)=C(C)Nc2nc(SCc3ccccc3F)nn21 (stereo not given) | inactive: 5.66%
15 | Cc1c(C(=O)N(C)C)sc2c1c(=O)n(-c1ccc(Cl)c(Cl)c1)c(=O)n2Cc1ccc(F)cc1 | inactive: -8.51%
16 | CC1CCCCN1Cc1nc2c(c(=O)n(C)c(=O)n2C)n1Cc1ccc(Br)cc1 (stereo not given) | inactive: -0.677%
17 | COc1ccc(NC(=O)c2c(-c3ccc(C)cc3)nnc3ccccc23)cc1OC | inactive: -4.08%
18 | Cc1ccc2c(Sc3ccc(Cl)cc3)c(C(=O)N3CCCCC3)[nH]c2c1 | inactive: 1.45%
19 | COc1cccc(NC(=O)CSc2cc(C)c3ccccc3n2)c1 | inactive: -31.5%
20 | COc1ccccc1-c1nc(CNC(=O)NC2CCCCC2)c(C)o1 | inactive: -3.62%
21 | Cc1ccc(NC(=O)CCn2nc(C)c3c(C)n(-c4ccccc4)nc3c2=O)cc1Cl | inactive: 0.46%
22 | O=C(Cn1ncc2ccsc2c1=O)N1CCN(c2ccc(Cl)cc2)CC1 | inactive: 1.66%
23 | CC(C)c1ccc(NC(=O)c2cn(C3CCCC3)c(=O)c3c2c2ccccc2n3C)cc1 | inactive: -15.2%
24 | COCCn1c(C)cc(O)c(C(c2ccccc2)N2CCN(c3ccccc3F)CC2)c1=O (stereo not given) | inactive: -1.2%

Row | SMILES | activity change, negative = cytotoxicity
25 | O=C(CSc1cn(CCNC(=O)c2ccccc2F)c2ccccc12)Nc1ccc2c(c1)OCCO2 | inactive: 13.8%
26 | CC(Nc1ccc(-c2nc(-c3cccnc3)no2)cc1[N+](=O)[O-])c1ccccc1 (stereo not given) | inactive: 18.2%
27 | CCS(=O)(=O)c1ccc(C(=O)N2CCN(c3nc4c(OC)ccc(C)c4s3)CC2)cc1 | inactive: -24.4%
28 | CCOC(=O)N1CCc2c(sc(NCc3cc(OC)ccc3OC)c2C(=O)Nc2cc(OC)ccc2OC)C1 | inactive: -16.6%
29 | O=C(CSc1nc2c([nH]c3ccccc32)c(=O)n1-c1ccccc1)Nc1cccc(C(F)(F)F)c1 | inactive: -8.42%
30 | Cc1ccc(N(C)C(=O)Cn2ncc3c([nH]c4ccccc43)c2=O)cc1C | inactive: -0.31%
31 | COc1ccc(NC(=O)CCc2c(C)nn(-c3ccc(N4CCCC4)nn3)c2C)cc1Cl | inactive: -20.7%
32 | COc1ccc(N2CCN(C(=O)Cn3cnc4sc(C)c(S(=O)(=O)N5CCCCC5)c4c3=O)CC2)cc1 | inactive: 2.78%
33 | Cc1ccc(Cn2c(=O)n(CCc3ccccc3)c(=O)c3sc4ccccc4c32)cc1 | inactive: 13.6%
34 | Cc1ccc(NC(=O)CCn2cccn2)c(C)c1 | inactive: 4.41%
35 | COC(=O)c1cc(-c2ccc(Cl)cc2)c2c(=O)[nH]c(=O)n(C)c2n1 | inactive: 19.2%
36 | CCOCCCNC(=O)C1CCN(c2nc3ccc(C)cc3[nH]2)CC1 | inactive: 4%
37 | Cc1ccc(Nc2c(-c3cccnc3)nc3ccc(C)cn23)cc1 | inactive: -7.66%
38 | CCc1nn(CC(=O)N2CCN(c3cccc(C)c3)C(C)C2)c(=O)c2cc3sccc3n12 (stereo not given) | inactive: 2.39%
39 | CCOCCCNC(=O)C(c1ccc(C)cc1)N(Cc1ccc2c(c1)OCO2)C(=O)c1ccccc1O (stereo not given) | inactive: -16.4%
40 | Cc1ccc(NC(=O)n2ncc3c(C)cccc32)c(C)c1 | inactive: 1.25%
41 | O=C(CSc1nnc2scc(-c3ccc(Cl)cc3)n12)Nc1ccc(F)cc1 | inactive: -4.29%
42 | COc1ccccc1C(=O)NC1(C(F)(F)F)NC(=O)N(CCc2ccccc2)C1=O (stereo not given) | inactive: 4.9%
43 | Cc1cc(C)c(NC(=O)CSc2nc(=O)n(Cc3ccncc3)c3c2CCC3)c(C)c1 | inactive: 1.18%
44 | CC1=C(C(=O)Nc2ccccc2)C(c2ccccn2)n2nc(SCc3ccccc3)nc2N1 (stereo not given) | inactive: 18.5%
45 | Cc1ccc(-n2nc(C)c3c(C(=O)Nc4ccccc4C(F)(F)F)cc(C)nc32)cc1 | inactive: 5.83%
46 | CCOc1ccc2nc(N(Cc3cccnc3)C(=O)c3cccs3)sc2c1 | inactive: 12.6%
47 | COc1ccc(-c2nc3ccccc3n2Cc2ccccc2)cc1 | inactive: 1.54%
48 | CCCCCOc1ccc(NC(=O)Cn2c(-c3nonc3N)nc3ccccc32)cc1 | inactive: 13.7%

Row | SMILES | activity change, negative = cytotoxicity
49 | COc1cccc(CNC(=O)Cn2nc(C)n3c(cc4cc(C)ccc43)c2=O)c1OC | inactive: 6.05%
50 | CCSc1nc(-c2cccc(Cl)c2)nc2c1Cc1c(CO)cnc(C)c1O2 | inactive: -4.46%
51 | CCCN(C(=O)c1cc2c(=O)oc3ccc(C)cc3c2s1)c1ccc(OCC)cc1 | inactive: 3.35%
52 | COc1ccc(C2Nc3ccccc3-c3cc(C)nn32)c(OC)c1 (stereo not given) | inactive: -2.73%
53 | Cc1cccc(C)c1OCCn1c(CCNC(=O)C2CCCCC2)nc2ccccc21 | inactive: -16.8%
54 | COc1ccc(C)c2sc(NC(=O)c3ccc(S(=O)(=O)N4CCOCC4)cc3)nc12 | inactive: 5.41%
55 | COc1ccccc1CNC(=O)C(=O)NCC(c1ccco1)S(=O)(=O)c1ccc(F)cc1 (stereo not given) | inactive: -13.4%
56 | COc1cccc(N2CCN(C(=O)c3cnc4c(-c5ccc(F)cc5)c(C)nn4c3C)CC2)c1 | inactive: -7.78%
57 | COc1ccc(C(=O)Oc2c(Sc3ccccc3)c(C)nn2-c2ccccc2)c(OC)c1 | inactive: 18.8%
58 | CCN(CC)S(=O)(=O)c1ccc2c(c1)N(CC(=O)Nc1ccc(Cl)cc1)C(=O)C1CCCN21 (stereo not given) | inactive: 0.0942%
59 | CC(C)(C)c1ccc(C(=O)NCC(c2ccco2)S(=O)(=O)c2ccccc2)cc1 (stereo not given) | inactive: -28.7%
60 | COC(=O)c1ccccc1NS(=O)(=O)c1cc2c3c(c1)CC(=O)N3CCC2 | inactive: -8.64%
61 | Cn1cc(-c2cc3n(n2)CCC(=O)N3CCCC(=O)Nc2ccc(Cl)cc2)c2ccccc21 | inactive: 12.7%
62 | CC(=O)N1CCCc2cc(S(=O)(=O)N(C)CC(=O)Nc3ccc(C(C)C)cc3)ccc21 | inactive: -26.4%
63 | CC(C)c1ccc(OCC(=O)Nc2ccc(S(=O)(=O)Nc3ncccn3)cc2)cc1 | inactive: -0.528%
64 | COc1ccc(NC(=O)Cn2ccn(-c3ccc(F)c(F)c3)c(=O)c2=O)cc1Cl | inactive: 0.484%
65 | COc1cccc(CNC(=O)c2sc3nc[nH]c(=O)c3c2C)c1 | inactive: -4.48%
66 | COc1ccc(CNC(=O)CCC2N=C3c4ccccc4N=C(SCC(=O)NCCc4ccc(OC)c(OC)c4)N3C2=O)cc1 (stereo not given) | inactive: -8.02%
67 | CC(C)OC(=O)c1c(NC(=O)c2cccc(C(F)(F)F)c2)sc2c1CCCC2 | inactive: 3.97%
68 | O=C1CC(c2ccccc2)Sc2ccccc2N1Cc1ccccc1F (stereo not given) | inactive: 12.2%
69 | O=C(c1ccccc1Cl)n1nc(-c2ccco2)nc1NCc1cccs1 | inactive: 8.72%
70 | Cc1cccc(CNC(=O)c2cnc3c(-c4cccc(C)c4)c(C)nn3c2C)c1 | inactive: -2.2%
71 | CCCCC(=O)N1c2ccccc2C(C)(c2ccccc2)CC1(C)C (stereo not given) | inactive: -1.36%
72 | COc1ccc(OC)c(CCNc2ncnc3onc(-c4ccc(Cl)cc4)c23)c1 | inactive: 0.514%

Row | SMILES | activity change, negative = cytotoxicity
73 | CCc1ccc(S(=O)(=O)NCCc2cn3ccsc3n2)cc1 | inactive: -0.368%
74 | CC(=O)N1CCCc2cc(S(=O)(=O)N(C)CC(=O)Nc3cccc(Cl)c3C)ccc21 | inactive: -21.8%
75 | Cc1ccc(NC(=O)CSc2nc3c(oc4ccccc43)c(=O)n2Cc2ccco2)cc1F | inactive: 0.964%
76 | Cc1nc(-n2nc(C)c(Cc3ccc(Cl)cc3)c2C)sc1C(=O)N1CCC(C)CC1 | inactive: 7.33%
77 | CCN(CC)c1ccc(NC(=O)COCc2cc(-c3ccc4c(c3)OCO4)on2)c(C)c1 | inactive: -5.83%
78 | Cc1ccccc1Cn1c2ccccc2c2cnn(CC(=O)NCc3cccc(Cl)c3)c(=O)c21 | inactive: 7.51%
79 | CCOC(=O)c1ccc(CN(Cc2ccc(F)cc2)S(=O)(=O)c2ccc(F)c(C(=O)Nc3cc(Cl)ccc3OC)c2)cc1 | inactive: 4.06%
80 | Cc1ccc(N2CCN(C(=O)c3c(C)oc4ncn(C)c(=O)c34)CC2)c(C)c1 | inactive: -4.58%
81 | CCN(c1ncnc2c1cnn2-c1ccc(C)cc1)C1CCCCC1 | inactive: 8.9%
82 | CCOC(=O)c1cccc(NC(=O)c2cc3sccc3n2Cc2ccc(Cl)cc2)c1 | inactive: 2.56%
83 | CCOc1ccc(CCNC(=O)CCc2cn(Cc3ccccc3F)c3ccccc23)cc1OCC | inactive: 21.4%
84 | COCCn1c(=O)[nH]c2cc(C(=O)NCc3ccccc3Cl)ccc2c1=O | inactive: 9%
85 | CCOc1ccc(NC(=O)c2c(Nc3ccc(OC)cc3OC)sc(C(=O)c3ccc(Cl)cc3)c2N)cc1 | inactive: -5.56%
86 | CCOc1ccc(NC(=O)CSc2nc(-c3ccc(OC)cc3)nc3c2Cc2c(CO)cnc(C)c2O3)cc1 | inactive: 20.7%
87 | CCOC(=O)c1cc(S(=O)(=O)NCc2ccccc2)[nH]n1 | inactive: 0.303%
88 | O=C(Cn1c(=O)ccc2cc(S(=O)(=O)N3CCCC3)ccc21)NCc1ccc(Cl)cc1 | inactive: 6.73%
89 | O=C(c1ccc(Cl)cc1)N1CCC(c2ccncc2)CC1 | inactive: -10.6%
90 | CCN(CC)S(=O)(=O)c1ccc2nc(NC(=O)c3cccnc3)sc2c1 | inactive: 3.58%
91 | COc1cc(-c2noc(-c3ccc(N4CCN(C)CC4)c([N+](=O)[O-])c3)n2)cc(OC)c1OC | inactive: 14.6%
92 | CCC(CO)NC(=O)C(=O)Nc1c2c(nn1-c1ccc(F)cc1)CSC2 (stereo not given) | inactive: -5.72%
93 | Cc1ccc(NC(=O)C2CCCN(c3nnc(C)c4c(C)n(-c5ccccc5)nc34)C2)c(Cl)c1 (stereo not given) | inactive: -3.71%
94 | O=[N+]([O-])c1cc(-c2nc(-c3ccccc3)no2)ccc1N1CCCCC1 | inactive: 24.3%
95 | COc1ccc(C(=O)OCc2cc(=O)n3nc(-c4cccs4)sc3n2)cc1 | inactive: -3.85%
